Source: ChEMBL document CHEMBL4888484, “Replenishing the malaria drug discovery pipeline: Screening and hit evaluation of the MMV Hit Generation Library 1 (HGL1) against asexual blood stage Plasmodium falciparum ,using a nano luciferase reporter read-out” (2022)
About 540 (0.36%) of roughly 150,000 compounds showed an effect of 50% or more. The list shows a part of the results.

tested on: Plasmodium falciparum; assay: Primary screen in NF54 nanoGlo assay, in single point, at 2uM, 72h; a lower Z score goes with more inhibition; format: functional, Erythrocyte; conditions: timepoint 72 hour

`CC(CNC1CCN(C(C)c2ccncc2)CC1)c1ccccc1` (stereo not drawn) was tested. Which “% Inhibition” value did it give?
The value was 6%.

And the Z score?
Its Z score is -0.74.

What does the source list for `Cc1cnc(CC[C@H]2CCCN2C(=O)CN2CCCC2=O)n1CC1CC1`?
% Inhibition: 27%; Z score: -3.7

`COc1cccc(N2CCN(C(=O)[C@@H]3CCNC3=O)CC2)c1` was tested. Which “% Inhibition” value did it give?
The value was -7%.

And the Z score?
The Z score was 0.92.

For `CO[C@@H](C)C(=O)N(CC(F)F)c1cccc(Cl)c1`, which “% Inhibition” value is on record?
Its value is -10%.

What about the Z score of the same compound?
Its Z score is 1.37.

`CC(=O)N1C[C@H](NS(=O)(=O)C2CC2)[C@@H](c2ccccc2)C1` was tested. Which “% Inhibition” value did it give?
Its value is -11%.

What about the Z score of the same compound?
Its Z score is 1.27.

With `Cc1ncc(S(=O)(=O)NCCc2cccnc2)cc1C#N` as the compound, how does the “% Inhibition” value read?
The value was 7%.

And the Z score?
The Z score was -0.79.

With `Cc1ccnc(OCC2CCNCC2)c1` as the compound, how does the “% Inhibition” value read?
Its value is -18%.

And the Z score?
The Z score was 2.09.

Which results are given for `Cn1cc(C(=O)N2CC[C@H](c3cccc(Cl)c3)C2)c(=O)[nH]c1=O`?
% Inhibition: 8%; Z score: -1.32

Which “% Inhibition” value does the source give for `Cc1ccc2[nH]c(-c3cc4n(n3)CCN(C(=O)N3CCN(C)CC3)C4)nc2c1` here?
Its value is -6%.

What about the Z score of the same compound?
Its Z score is 0.7.

With `CC(OCC(F)(F)F)C(=O)NC(CNC(=O)OC(C)(C)C)C1CCCC1` (stereo not drawn) as the compound, how does the “% Inhibition” value read?
Its value is -6%.

And the Z score?
Its Z score is 1.15.

How did the “% Inhibition” value turn out when `Cc1cc(CN(C)C(=O)[C@H](C)NC(=O)c2ccoc2)no1` was run?
The value was -7%.

And the Z score?
The Z score was 1.28.

`Cc1ccc(-n2cc(-c3cn(Cc4ccoc4)nn3)cn2)cc1C` was tested. Which “% Inhibition” value did it give?
Its value is -16%.

And the Z score?
Its Z score is 2.77.

How did the “% Inhibition” value turn out when `CC(=O)N1CCN(C(=O)Nc2nc3ccccc3s2)CC1` was run?
Its value is 0%.

And the Z score?
Its Z score is -0.07.

For `O=C(c1ccc(-c2c[nH]c(C(=O)N3CCOCC3)c2)cc1)N1CCCCCC1`, which “% Inhibition” value is on record?
The value was -4%.

And the Z score?
The Z score was 0.77.

`O=C(CS(=O)(=O)Cc1ccccc1)Nc1ccc2c(c1)OCO2` was tested. Which “% Inhibition” value did it give?
Its value is -4%.

What about the Z score of the same compound?
The Z score was 0.74.

Which “% Inhibition” value does the source give for `COCc1nc(NCCc2csc(C)c2C)cc([C@H]2C[C@@H](N)C2)n1` here?
Its value is 12%.

And the Z score?
The Z score was -1.38.

What does the source list for `C#CC(C)(C)OCC(O)CN1CCCCC1C` (stereo not drawn)?
% Inhibition: -15%; Z score: 2.01

Which results are given for `CCN(C(=O)N[C@@H](C)c1csc(C)n1)C1CCCCC1`?
% Inhibition: -9%; Z score: 0.94

What does the source list for `CN1Cc2ccc(CN(C)C(=O)Cn3ccc(=O)[nH]c3=O)cc2C1`?
% Inhibition: -19%; Z score: 1.77

With `COc1cc(C2CN(C(=O)c3ccccc3F)CC2C(=O)N2CCCC2)cc(OC)c1OC` (stereo not drawn) as the compound, how does the “% Inhibition” value read?
The value was -16%.

And the Z score?
Its Z score is 2.29.

How did the “% Inhibition” value turn out when `Cc1cc(NC(=O)NCCc2ccc(O)cc2)nn1C` was run?
The value was -3%.

And the Z score?
The Z score was 0.49.

How did the “% Inhibition” value turn out when `O=C(c1ccc(F)cc1)N1CCN(Cc2nnsc2Cl)CC1` was run?
Its value is -3%.

What about the Z score of the same compound?
The Z score was 0.35.

Which results are given for `CC(=O)N1CCCN(C(=O)N[C@@H](C)c2ccccn2)CC1`?
% Inhibition: -10%; Z score: 1.28

With `Cc1cccc(CNC(=O)N[C@H]2CC[C@H](O)CC2)c1Br` as the compound, how does the “% Inhibition” value read?
Its value is 29%.

What about the Z score of the same compound?
The Z score was -3.26.

How did the “% Inhibition” value turn out when `CC(C)[C@H](C)n1ncc2[nH]c(CC(C)(C)C)nc21` was run?
The value was 2%.

What about the Z score of the same compound?
Its Z score is -0.24.

How did the “% Inhibition” value turn out when `CCn1ncc(NC(=O)N[C@H]2CCOC23CCCC3)c1C(F)(F)F` was run?
The value was -11%.

What about the Z score of the same compound?
Its Z score is 1.67.

Which “% Inhibition” value does the source give for `Cc1ccc(NC(=O)[C@@H]2CNC[C@H](C(=O)N[C@H]3CC[C@H](O)CC3)C2)cc1` here?
Its value is -5%.

What about the Z score of the same compound?
Its Z score is 0.8.

What does the source list for `Cc1cc(C(=O)Nc2ccc(S(=O)(=O)N3CCc4ccccc43)cc2)no1`?
% Inhibition: -6%; Z score: 1.01

What does the source list for `CCc1nn(C)cc1C(=O)NCc1csc(-c2ccco2)n1`?
% Inhibition: -3%; Z score: 0.41

With `Cc1noc(-c2cccc(F)c2)c1C(=O)N[C@@H](C)CCc1ccccc1` as the compound, how does the “% Inhibition” value read?
The value was -1%.

What about the Z score of the same compound?
Its Z score is 0.14.

How did the “% Inhibition” value turn out when `COc1ccc(COCCN2CCC(c3ncco3)CC2)cc1` was run?
Its value is -8%.

What about the Z score of the same compound?
The Z score was 1.42.

What does the source list for `C=C(C)C[C@H](C)C(=O)NCCc1cn2cccnc2n1`?
% Inhibition: -8%; Z score: 1.51

For `CCn1ccc2c(cc(C(=O)Nc3ccc(C)c(Cl)c3)n2C)c1=O`, which “% Inhibition” value is on record?
Its value is 10%.

What about the Z score of the same compound?
The Z score was -1.81.

Which “% Inhibition” value does the source give for `CS(=O)(=O)NC1CCCCC1NC(=O)C1CC1c1c(F)cccc1F` (stereo not drawn) here?
Its value is -5%.

What about the Z score of the same compound?
Its Z score is 0.77.

Which “% Inhibition” value does the source give for `COc1ccc(NC(=O)Cn2nc3n(c2=O)C(=O)N(c2ccccc2)C3)cc1` here?
The value was -3%.

What about the Z score of the same compound?
Its Z score is 0.62.

Which results are given for `Cc1nncn1C1CCN(S(=O)(=O)c2ccc(Cl)cc2)CC1`?
% Inhibition: -11%; Z score: 1.89

Which results are given for `Nc1cc(C(=O)NCCOc2ccccc2F)n[nH]1`?
% Inhibition: -10%; Z score: 1.64

How did the “% Inhibition” value turn out when `CC1(C)CN(Cc2ccncc2)CC[S@@+]1[O-]` was run?
Its value is 39%.

And the Z score?
Its Z score is -3.98.

`CCn1ncc(Br)c1C(=O)NCc1cscn1` was tested. Which “% Inhibition” value did it give?
The value was -19%.

And the Z score?
The Z score was 2.94.

`Cc1nc(C)c(C)c(N2CCC[C@H](c3cc(O)ncn3)C2)n1` was tested. Which “% Inhibition” value did it give?
Its value is 4%.

And the Z score?
The Z score was -0.49.

For `Cc1c(NCc2ccccn2)cccc1C(=O)N(C)C[C@H]1CCCCN1C`, which “% Inhibition” value is on record?
The value was -10%.

And the Z score?
Its Z score is 1.36.

For `OC(CN[C@H]1CCO[C@H](c2cccnc2)C1)c1c(F)cccc1F` (stereo partly drawn), which “% Inhibition” value is on record?
The value was -9%.

And the Z score?
The Z score was 1.48.

Which results are given for `OC1CCN(c2cc(N3CCO[C@H](c4ccc(Cl)cc4)C3)ncn2)CC1`?
% Inhibition: -7%; Z score: 0.75

`Cc1csc(S(=O)(=O)NC(c2ccc3c(c2)CCO3)[C@H]2C[C@@H](O)C2)c1` (stereo partly drawn) was tested. Which “% Inhibition” value did it give?
Its value is 1%.

And the Z score?
Its Z score is -0.13.
